B1: LINE1-full (parent)
chain: UACGUAGGUGGUUUUCCCCUGAUAGUGCUAAGGGGGCCUGGAAGUUUGGACUGGGCAGAGCUCAACACAGCGUGGCAAAGUGGCUGUGGCUAGACUGCCUCUCUGGAUUCCUCGUCACUCAGCAGGGCAUCUCUGAGAGAAAUGCC

The source gives no read counts; variants with many changes may rest on few reads.

The variants in this series derive from B1. In words: self-cleavage, relative activity (ratio to wild type); higher = more cleavage; in vitro, sequencing; the parent is a self-cleaving ribozyme.
As to C51U U96C G126A, the self-cleavage was 0.11.
On to U52G U62C A124G, for which the self-cleavage came out at 0.
The same measure for G58A U104C U132C: 0.08; for U52C A117G U119A U143A: 0; for A57G U112C U143A: 0.39.
The same measure for A57U U132C A141G: 0.04; for A57U U73A U81A: 0.01; for A59G A77G U96A G126U: 0.06.
As to A57U U73C G74A A77G A138G A141G, the self-cleavage was 0.12.
On to G58A U115C U119A A129G, for which the self-cleavage is 0.03.
Turning to G54A A64G A117G, the self-cleavage came to 0.28.
Regarding G53A A64G U109C, the self-cleavage turned out to be 0.19.
The same measure for U52A A65G U96C: 0.07.
Regarding U52C C116U G126A U130C, the self-cleavage was determined as 1.04.
Regarding A59G A64C A129G A141G, the self-cleavage stood at 0.
The same measure for A57G A65G C68U U73A A94G: 0.05; for G54A U85C A92U C99U: 0.11; for A57U U132C A138G: 0.09.
Take A57G U102C U115A: the self-cleavage came to 0.35.
The same measure for C51U U62C G86A: 0.05; for U52A C68U C113A U130C: 0.19; for U52C U62C A78U U102C: 0.09.
Regarding A59G A77G A107U U115C C120U, the self-cleavage worked out at 0.17.
The same measure for U52A U96A U102C U115C U119A: 0.
Turning to G55A U81C A136G, the self-cleavage was 0.5.
The result for A57U A79G U96C U104A reads 0; that for A57U U108C U132C, 0.48; that for C51U A57G A129C G144A, 1.57.
The result for A57G A67C A140U reads 0.13; that for C56U A77C A78G U91A, 0.12.
With A57U U62C U96C, the self-cleavage was 0.08.
A57U A65G A69G: the self-cleavage was 0.
The same measure for A57G A77U U81C G83A A138U: 1.2; for G55C U73A U100C: 0.03.
The same measure for A57C U62A U100C: 0.11.
The same measure for A57G U96C A142G: 1.36; for U52A C68U U81C U112C A117U: 0.07; for G54C U81C A140G: 1.12.
With G53A U109A A121U A129C, the self-cleavage was determined as 1.62.
The same measure for U52A G114A A142G U143A: 0.85; for U52C U62A C133U: 0.07.
As to U52A A57G G70U A141G, the self-cleavage was 0.03.
With A59C U81A U102C C128U, the self-cleavage was 0.88.
The result for U52A A79G U112C C113U reads 0.59.
The result for G54A A77U U102G A141G reads 0.07; that for U52A U62C U91C U108C C110A, 0.09; that for A57G A65G U108A, 0.13.
Regarding U52C A65G A124U, the self-cleavage came out at 0.
The result for G54U A59U A69U U87A U96A A141G reads 0.01; that for U52C A64U A77U A136G, 0.17; that for A57G G70A A140C, 0.05.
The result for U52A G54C C63U A67U A94G U112A A141G reads 0.05.
The same measure for G53A U115C G144A: 1.35.
In the case of U52C A67U G75A A79U A92G U119A, the self-cleavage came out at 0.05.
On to U52C U102C C116A G139A, for which the self-cleavage was found to be 1.65.
The same measure for A57U A124G A141G: 0.14; for U52C C61U C103U: 0.04.
As for U52C A78G C145A, the self-cleavage came to 1.61.
For G58A U81A U85A A141G, the self-cleavage is 0.01.
On to G58A U73C U96A A142G, for which the self-cleavage is 0.
The same measure for A57G C63A A69U: 0.01.
Turning to G54A A124G A136C A140G, the self-cleavage came to 0.07.
In the case of G54A U134C A138U, the self-cleavage is 0.58.
The result for C56U A77G U87A U104C reads 0.03; that for U52A A117G A121G, 1.12.
The same measure for A57G A69G U112C G127U A140U: 0.31; for A57G G58A A67U U96C A140G: 0.08.
For A59G A65G A142G, the self-cleavage turned out to be 0.
As for A57G A65G G93A G127A A140C, the self-cleavage was determined as 0.03.
For the variant A57G U112C U130C A140G, the self-cleavage worked out at 1.21.
Regarding A57G G93U U104C U143C, the self-cleavage was determined as 0.06.
Consider A57U G72A A107G U130C, for which the self-cleavage was 0.08.
The same measure for G53A C61U U96C G105A U132C: 0.02.
Regarding C56U A57U U104C U132A, the self-cleavage amounted to 0.06.
The result for A57G U115C A142G reads 1.78; that for G58A A77G A107G U119C U134A, 0.13; that for A57G A64U A141G, 0.2.
As to C56U A67G A141G, the self-cleavage is 0.06.
The same measure for A57U U119A A136G: 0.13.
On to A57U G58A U85C A136G, for which the self-cleavage stood at 0.04.
The result for U52A U96C U102C C111U reads 0.06; that for U52G G93C A138U A142G, 0.
For G58A A67G U132A, the self-cleavage stood at 0.07.
As to A57U U109G U119C, the self-cleavage was determined as 0.
The result for C56U U87A U100A U134A reads 0.03.
The result for G58A U73C G74A U104C A107C U134C reads 0.12.
As to A57G U109A A121G, the self-cleavage came out at 0.75.
Regarding A57G A64U A78U U87A, the self-cleavage turned out to be 0.07.
As for A57U A64G A121G A129G, the self-cleavage came to 0.
The result for G54A A121G A141G reads 0.98; that for G53C C110A U132C, 1.
With U52A A65C A67G G75C, the self-cleavage is 0.17.
Consider A57U G88A A124G, for which the self-cleavage came out at 0.03.
For A57G U108C A121G A138G, the self-cleavage amounted to 2.63.
The same measure for U52C A77U U87A A129C: 0.07; for G58A A77U A117G: 0.07.
With A57U A136G U143A, the self-cleavage amounted to 0.21.
The result for U52A U130C A142C reads 0.96; that for G53A U73C U115A A141G, 1.92; that for U52A A67G G72U, 0.3.
The same measure for G54A U96C U102A A124G: 0.04; for U52C C90U U108C: 0.17; for A57G A59U A140G: 0.52.
With C51A U87C A107G, the self-cleavage came out at 0.
In the case of A57C G72A U134C, the self-cleavage was found to be 0.05.
Take A57U U62C A129G A141G A142U: the self-cleavage is 0.05.
The same measure for U52C A59U A77G: 1.06.
For A57U A65U U81A U85C, the self-cleavage was found to be 0.05.
As for C51G A64G G74A A92G, the self-cleavage came to 0.1.
The same measure for U52C A124G A136G: 1.31; for U52C C95U U100C: 0.48; for A57G C84A A121G: 0.13.
The same measure for U52C A142G U143A: 1.79; for C56U U96C A129U: 0.06; for C51A A65G A79G: 0.04.
The same measure for C56A C101A A124G: 0.02.
Turning to G54U A77G G93A, the self-cleavage was 0.
The result for U52C U96C U143C reads 0.32; that for A57G A65G A136G, 0.
Regarding A57U A77C A79G U81A U104C U143C, the self-cleavage came to 0.
On to U52C U81C C103U, for which the self-cleavage was determined as 1.76.
The same measure for G55A A77U U87C A117U A141G: 0.04; for C56U U87C U96C: 0.28; for G58A U100C U132C A140G: 0.06.
Consider G55C A78G U134G, for which the self-cleavage came out at 0.12.
Turning to U52A U108C A140U, the self-cleavage was determined as 1.89.
U52C U73A A121U: the self-cleavage was determined as 0.36.
Consider A57U G122A A140G, for which the self-cleavage amounted to 0.35.
U52C A65G A79G: the self-cleavage amounted to 0.
The same measure for U52C A69U A107G: 0; for U52A A59G A67G: 0; for A57U U87A U143C: 0.05.
Regarding U52A A64U G114A, the self-cleavage was found to be 0.39.
The same measure for A57G A59G A77G A141G: 0; for G54A G80A U85C U104C A140G: 0; for U52A U96C G125C: 0.15.
As for A59G A69G U85A A121G, the self-cleavage is 0.
The result for U52A U108C U115C A138G reads 0.
Regarding G54A U134C A141G, the self-cleavage was determined as 0.66.
Regarding G55A A67G U73C U87A U134C, the self-cleavage was 0.05.
The result for U52C A59G U85C reads 0; that for A57G U81A A92G, 0.1; that for A57G A117G G122A, 2.3.
The same measure for A57G U62A A78G A129G: 0.18; for U52A U62C C146U: 0.06.
Turning to G54A U87C A141G, the self-cleavage was 0.1.
On to C51A U62C A64U C95U, for which the self-cleavage was 0.
On to C51A C56A A57G U108A C110A A121G, for which the self-cleavage was 0.02.
In the case of A57G A77U U134A, the self-cleavage was 0.2.
As to G54A U73C A129G, the self-cleavage is 1.22.
In the case of A57U A78G C99U U104C U112A, the self-cleavage turned out to be 0.
The result for C56U A57C U62A A67C U119C reads 0.09.
For the variant G53A A94G A142G, the self-cleavage was determined as 0.09.
The result for G58A C71A A77G A124G A140G reads 0.02; that for G54A A64U A117G A140G, 0.29; that for C56U A78G A124G, 0.13.
In the case of A57G U62C A138G, the self-cleavage is 0.11.
Consider A57G C66U U73C, for which the self-cleavage is 0.03.
Regarding A59G A67C G127A, the self-cleavage was determined as 0.
With A57G U108C A117U, the self-cleavage was 2.47.
With G53U U102C U115C, the self-cleavage worked out at 0.68.
As to A57U A107G U134A, the self-cleavage came out at 0.13.
On to U52A A65G G74A, for which the self-cleavage came out at 0.05.
Turning to A57G G75C A121G, the self-cleavage is 0.59.
Consider U52A A64G U115A, for which the self-cleavage came to 0.12.
For A57G C61A U73C A138U, the self-cleavage was determined as 0.05.
On to A57G A94G U115C, for which the self-cleavage came out at 0.48.

The values are drawn from the RNAGym collection of RNA variant scans (doi:10.7554/elife.90254).
